Measurements: the supplement of paper PMC3334620
In all, about 33,000 sequences were measured (“E-score (-0.5 to 0.5)”: median about -0.01, highest 2% from about 0.26 on). This is one part of the list.

Target: Ste12 (UniProt P13574)
Test: PBM E-score (8-mer binding enrichment) (E-score (-0.5 to 0.5)); higher = stronger / more preferred TF binding; most listed sequences are background and not binding sites
Settings: protein concentration: 200 nM; construct: GST-DNA-binding domain
Experimental: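 Universal 'all 10-mer' protein binding microarrays (Agilent AMADID 015681) probed with GST-tagged S. cerevisiae TFs (full-length or DBD) made by in vitro transcription/translation (PURExpress), about 100-200 nM. Bound TF was detected with fluorescent anti-GST. Each ungapped 8-mer (which stands for itself and its reverse complement) is scored by the PBM enrichment score (E-score), a modified Wilcoxon-Mann-Whitney statistic from -0.5 to +0.5, computed with the Universal PBM Analysis Suite. Scale: above 0.35 generally sequence-specific binding.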

Compared with CTTAAGGA, ATGCTCTC is higher in “PBM E-score” value: -0.182 for the first, -0.0854 for the second.

Going from ACGTGGCG to ACCTCGCT, the “PBM E-score” value rises from -0.147 to -0.0107.

First: ATACCCGC
Second: CTACGGGA
The “PBM E-score” value of the first is higher: 0.13 for the first, -0.222 for the second.

Compared with AGTCGAAG, AATAACAG is higher in “PBM E-score” value: 0.0668 for the first, 0.164 for the second.

First: CAACAGGA
Second: ACCGCACT
The “PBM E-score” value of the first is lower: -0.173 for the first, 0.0325 for the second.

Compared with CCTATTTA, AGGAACCC is lower in “PBM E-score” value: 0.186 for the first, -0.194 for the second.

Going from CATGAACA to AATTCTCC, the “PBM E-score” value rises from -0.0149 to 0.258.

Compared with CCCTGGAC, GCCTATTA is higher in “PBM E-score” value: -0.221 for the first, 0.0234 for the second.

First: CACGACAG
Second: CACATATA
The “PBM E-score” value of the first is lower: -0.0897 for the first, 0.0475 for the second.

First: TGAAGTCA
Second: CATTGATA
The “PBM E-score” value of the first is lower: -0.0207 for the first, 0.152 for the second.

Compared with GCCACCCC, ACAGACGT is higher in “PBM E-score” value: -0.0121 for the first, 0.0256 for the second.

Compared with AATGGTTG, AGCCCGTC is lower in “PBM E-score” value: -0.0565 for the first, -0.216 for the second.

First: AAAACGAA
Second: CGGATGCC
The “PBM E-score” value of the first is higher: 0.237 for the first, -0.0882 for the second.

First: AATATTGG
Second: GATAGAGA
The “PBM E-score” value of the first is higher: 0.017 for the first, -0.0768 for the second.

First: ACCGGAAT
Second: CAAATGAG
The “PBM E-score” value of the first is higher: 0.084 for the first, -0.00681 for the second.

First: GAACGGAA
Second: AGGCCGCG
The “PBM E-score” value of the first is higher: 0.0637 for the first, -0.0686 for the second.

First: CAAACTCG
Second: AGTATGAG
The “PBM E-score” value of the first is lower: 0.0594 for the first, 0.11 for the second.

First: CGTTAGAC
Second: ATTCGCAC
The “PBM E-score” value of the first is lower: -0.127 for the first, 0.0371 for the second.

Going from CGCAAGGA to GGGCTATA, the “PBM E-score” value rises from -0.148 to -0.141.

First: ACACCCGT
Second: GTCCGAAA
The “PBM E-score” value of the first is lower: -0.161 for the first, 0.211 for the second.

First: AGTGTGTC
Second: GCATGATA
The “PBM E-score” value of the first is lower: -0.00349 for the first, 0.0794 for the second.

First: CCAGTCAG
Second: CGAACAAG
The “PBM E-score” value of the first is higher: 0.00591 for the first, 0.001 for the second.

First: ATTAGAGA
Second: ACGACAAT
The “PBM E-score” value of the first is higher: 0.0346 for the first, -0.0369 for the second.

First: AAGGTGGT
Second: ACCACTAA
The “PBM E-score” value of the first is lower: -0.0871 for the first, 0.0361 for the second.

First: CCCGTTGC
Second: GCTGCGAC
The “PBM E-score” value of the first is lower: -0.145 for the first, 0.024 for the second.

First: GCAAGTTA
Second: GCGGCACC
The “PBM E-score” value of the first is higher: 0.0572 for the first, 0.00611 for the second.

Compared with CGCTCTTA, CTGACCCA is lower in “PBM E-score” value: 0.0352 for the first, -0.105 for the second.

Going from CAACGTAG to ATACGACG, the “PBM E-score” value rises from -0.255 to 0.0539.

Going from GCAGACGA to CCGTTAGA, the “PBM E-score” value rises from 0.0114 to 0.0305.

First: TGTGCACA
Second: ATATTCCG
The “PBM E-score” value of the first is lower: -0.327 for the first, 0.0659 for the second.

Compared with AAGTTAGC, CATAGTGC is higher in “PBM E-score” value: -0.0335 for the first, -0.0329 for the second.

Compared with GGTTTGAA, CGCGGAGC is lower in “PBM E-score” value: 0.297 for the first, -0.0792 for the second.

First: ACTCCTCT
Second: ACTGATAA
The “PBM E-score” value of the first is lower: -0.0879 for the first, 0.2 for the second.

First: CTATTCTC
Second: CTGGGCAC
The “PBM E-score” value of the first is higher: 0.0163 for the first, -0.0199 for the second.

Going from CATACTAA to TAGAGATA, the “PBM E-score” value falls from 0.147 to -0.0229.

Compared with CCGACGTC, CCTAGCCA is lower in “PBM E-score” value: -0.112 for the first, -0.166 for the second.

First: ATATGGGA
Second: AAGAGAAC
The “PBM E-score” value of the first is higher: 0.173 for the first, 0.0833 for the second.

Going from AGGAGGGG to AACTCGCA, the “PBM E-score” value falls from 0.285 to 0.00437.

Going from GCACATTA to AAATTGAA, the “PBM E-score” value rises from -0.0503 to 0.185.

Going from CTCACGAA to GACAGCAC, the “PBM E-score” value rises from -0.114 to -0.014.

Going from GACAGAAA to AGCGGGTC, the “PBM E-score” value falls from 0.168 to -0.133.

First: CAAAGAAG
Second: CCATGGAG
The “PBM E-score” value of the first is higher: 0.112 for the first, -0.182 for the second.

First: AAGAACAG
Second: AGTTGTAC
The “PBM E-score” value of the first is higher: 0.0799 for the first, 0.0416 for the second.

First: CGAGAGTC
Second: CGCAGCAG
The “PBM E-score” value of the first is lower: -0.246 for the first, -0.102 for the second.

First: GTGCCGAA
Second: AGGCAGGA
The “PBM E-score” value of the first is higher: -0.0314 for the first, -0.219 for the second.

First: CGGCTTAC
Second: AAGGAAAT
The “PBM E-score” value of the first is higher: 0.139 for the first, 0.0925 for the second.

Compared with ATCTGTCC, AAAGTATG is higher in “PBM E-score” value: -0.135 for the first, 0.141 for the second.

Compared with ACGTGGTA, CAAAAAAG is higher in “PBM E-score” value: -0.0589 for the first, 0.159 for the second.

Compared with CTCGCAAC, GCCTACGC is lower in “PBM E-score” value: 0.00396 for the first, -0.157 for the second.

First: AATAATAG
Second: CATCGCGC
The “PBM E-score” value of the first is lower: 0.0434 for the first, 0.0539 for the second.

Going from GATACCAA to CTTGACGA, the “PBM E-score” value falls from 0.16 to -0.0679.

Going from ACATTGCC to CGGGAGAG, the “PBM E-score” value falls from -0.107 to -0.208.

Going from TCGTTTCA to CGAGTCGA, the “PBM E-score” value falls from 0.467 to 0.0672.

First: GCCTAGAC
Second: CAGTATAA
The “PBM E-score” value of the first is lower: -0.14 for the first, 0.222 for the second.

Compared with AAACAGTC, AGCGAATC is lower in “PBM E-score” value: -0.038 for the first, -0.0395 for the second.

First: GATACTCC
Second: ATGTAGGG
The “PBM E-score” value of the first is lower: -0.143 for the first, -0.119 for the second.

First: ACACTTAA
Second: AACCCCGT
The “PBM E-score” value of the first is higher: 0.127 for the first, 0.122 for the second.

Compared with ACTGGATA, CTTGCTAC is lower in “PBM E-score” value: 0.0614 for the first, -0.0644 for the second.

Going from ACGTGGTC to AGTTAATG, the “PBM E-score” value rises from -0.14 to 0.19.

First: TCTGCTAA
Second: ATTAATCC
The “PBM E-score” value of the first is lower: -0.0489 for the first, 0.0655 for the second.

Going from CCCACGCA to TACAATGA, the “PBM E-score” value rises from -0.0214 to 0.172.

First: GGTGAGGA
Second: CTAAATAA
The “PBM E-score” value of the first is lower: -0.00014 for the first, 0.0819 for the second.

Compared with CCGCGACA, ATTACCCC is lower in “PBM E-score” value: 0.125 for the first, 0.0911 for the second.

First: GCAATCAA
Second: TAGCAAGA
The “PBM E-score” value of the first is higher: 0.0398 for the first, 0.0303 for the second.

Going from ATTTGGAC to GCTACTAC, the “PBM E-score” value rises from 0.0307 to 0.0413.

Going from CGGTCATA to AAGCACGT, the “PBM E-score” value falls from 0.057 to -0.0189.

First: CTATTCCA
Second: TCGGACGA
The “PBM E-score” value of the first is higher: 0.0935 for the first, -0.0726 for the second.

Going from ACTAAAAT to AGCAACTG, the “PBM E-score” value falls from 0.27 to -0.149.

Compared with AACTCGTG, AAACTGTT is higher in “PBM E-score” value: 0.144 for the first, 0.162 for the second.

First: AACATTCT
Second: CTGGACAC
The “PBM E-score” value of the first is higher: -0.0595 for the first, -0.21 for the second.

Going from CAGAAGAA to AATCCAGA, the “PBM E-score” value rises from -0.0592 to 0.187.

Going from ATGCGGCG to GTCCTGAA, the “PBM E-score” value rises from -0.031 to -0.0225.

Compared with AGCCCGGG, GCGGGGTA is higher in “PBM E-score” value: -0.112 for the first, 0.143 for the second.

Going from AATCGCCC to AGGATCAT, the “PBM E-score” value rises from -0.23 to -0.11.

Compared with GAATGCAC, ACCCGCTC is lower in “PBM E-score” value: 0.0659 for the first, -0.09 for the second.

Going from ATGGATCG to GCTGCTCA, the “PBM E-score” value falls from -0.059 to -0.123.

First: CACAAGAG
Second: CGCAAAGA
The “PBM E-score” value of the first is lower: 0.0242 for the first, 0.141 for the second.

First: ATTAATGC
Second: GAAGCCAA
The “PBM E-score” value of the first is higher: 0.161 for the first, 0.0219 for the second.

First: AGAACTAC
Second: CACCGCTG
The “PBM E-score” value of the first is higher: 0.0756 for the first, -0.0676 for the second.

Compared with CGACAAGA, CTCACTCA is higher in “PBM E-score” value: 0.00247 for the first, 0.11 for the second.

Going from TGCGCGCA to ATCCTTCC, the “PBM E-score” value falls from 0.151 to -0.303.

Going from ATGGCTCG to CAGCATGC, the “PBM E-score” value falls from 0.0164 to -0.0492.

Compared with GGCACTCA, ATAGGGAA is higher in “PBM E-score” value: -0.142 for the first, -0.037 for the second.

Compared with CCTAGCAC, AATGACAC is lower in “PBM E-score” value: 0.0623 for the first, 0.0352 for the second.

Compared with GGTAGGAC, AGGTCACG is higher in “PBM E-score” value: -0.169 for the first, -0.132 for the second.

Going from ATATTAGC to ATAGCGGC, the “PBM E-score” value falls from 0.0763 to -0.0116.
